# Publication PMC12136788
# This is one part of the list.
# B1: chr8:95500983:95500984:-_ENSG00000164944_ENST00000437199|hu_hu|hu_hu_hu_mus_True|38_38 (ssRNA)
# RNA: GGGAGUUCUACAGUCCGACGAUCAGAACACAUCUAUCGAGUAAAGGACCGUACAUGACGGCCUCUACCACUGCCUCCACUAACAAACUUUCCUCUCUGAGCCUCCAUGCCGCUAUUUGUACUAGCCCAGGACGGUCCCAGGCCCAACAGAGGAUUGAGCAUCA
# B2: chr2:216981417:216981418:+_ENSG00000079246_ENST00000392132|hu_hu|hu_hu_hu_mus_True|1_88 (ssRNA)
# RNA: GGGAGUUCUACAGUCCGACGAUCCUGAUACUGGUCCUUGCCAGCAAGGGGAUUGUCAGUGCCAUCUGUGCCAUAGAGGACUAACGCAAUCUCAUCUUUGCUCUCCGAAAAUACCUGUCGUUGGACAAACAUAGUCAUCACCUUCAACAGAGGAUUGAGCAUCA
# B3: chrX:101152592:101152593:-_ENSMUSG00000056537_ENSMUST00000070705|mus_hu|motif|central (ssRNA)
# RNA: GGGAGUUCUACAGUCCGACGAUCUAAAUCUGCAGUAUGACAUCUUACAUAGGGAAAAAAGCUUCUUCCUAAAAGAUAACGGUUAAUAAUCAAACCAGCUUUAAUAUGAUUGACCUUUCAAGGUCUUGUUUUGCUUUAAACAAGCAACAGAGGAUUGAGCAUCA
# B4: chr5:71593506:71593507:-_ENSG00000113048_ENST00000457646|hu_mus|motif|central (ssRNA)
# RNA: GGGAGUUCUACAGUCCGACGAUCAUCUAGAUCUUCUCGGGAUGCAAUGUUGUCCACAAACCGUGAUAUUGAUAAAGAACGGACAGGCAAUUUUCUUUCAUACGCUUUGUCCAUUAAGGAUGCAAGAUCAGCCAGAUGGUAUUCCAACAGAGGAUUGAGCAUCA
# B5: chr17:56552419:56552420:-_ENSMUSG00000013236_ENSMUST00000086828|mus_mus|mus_mus_mus_hu_False|8_108 (ssRNA)
# RNA: GGGAGUUCUACAGUCCGACGAUCAAAGUUUUUUUCUUUUAAAAAAAAUGAAAUGUCACGGGAUACAGUUACACUGAGAGUUUUAAAAGAAAGCUGGAUUCUGGUCCCAGCCCAGUGUCCCCAGGCUGAGUGCGGAAGAGGAGCCAACAGAGGAUUGAGCAUCA
# B6: chr3:103546164:103546165:-_ENSMUSG00000008730_ENSMUST00000118317|mus_hu|FALSE|FALSE (ssRNA)
# RNA: GGGAGUUCUACAGUCCGACGAUCUGAGAACUCAGCCGAGAAUCCAAAAUGGAAAGGGGUAGAGGUGGUGGUAAAGGAGAAAAGCUGCUGUUUUUAUUUUUCAAUGUUGGCAGGGAAACUGAGAACAAUGCAUUACACAAUACACAACAGAGGAUUGAGCAUCA
# B7: chrX:55033037:55033038:+_ENSG00000169188_ENST00000374987|hu_hu|motif|central (ssRNA)
# RNA: GGGAGUUCUACAGUCCGACGAUCAGUGACUGCUGACCAGCAGGUGAAGGCCCCCUCCUGCUUUGGUUGGAAGCAGCGGUAGCGGUCGAUGAAGGGCCCUACAUGAGAGGCAGACUGGCACCCCAAGUUACUGAGCAAGCUGUCCAACAGAGGAUUGAGCAUCA
# B8: chr12:77883852:77883853:+_ENSMUSG00000090258_ENSMUST00000041262|mus_mus|FALSE|FALSE (ssRNA)
# RNA: GGGAGUUCUACAGUCCGACGAUCAAGAGAACCAUGGGAGGCUUAGAACAGCAGAGUCAUCUGCCGGGGGUCAUCAGGGAGAAUACUGAUAGUAUCUUCAGCUUUGCCACACAACAGACACAGCAUGGUAUAUUCCUGAAAUUCCAACAGAGGAUUGAGCAUCA
# B9: chr4:44140560:44140561:-_ENSMUSG00000035696_ENSMUST00000045793|mus_mus|motif|central (ssRNA)
# RNA: GGGAGUUCUACAGUCCGACGAUCUUAAGUAUUUCUGACACUAACACAAACCUAGGGGCAACAGAAUGUAGGUCAAAUCCGGUUUGUCUAACUAGGUAGAGGCAACAGUGUCUGGAAGAGGACAAAAUUGUGCUUCUGUGUGGACAACAGAGGAUUGAGCAUCA
# B10: chr12:39756943:39756944:-_ENSG00000139116_ENST00000544797|hu_mus|hu_hu_hu_mus_False|78_88 (ssRNA)
# RNA: GGGAGUUCUACAGUCCGACGAUCGGUUUGGCUGUUACCCCCAAGGGAAUCCUGUAGUAGUCUUGUUAGCUUAGAGUCUCUGUAAGGGACAUGGGUGGCUCUCUUGCUCUUGUCCCCCAAGGCGCUGAUUACAUUCCCAAGAGCCAACAGAGGAUUGAGCAUCA
# B11: chr2:176857141:176857142:-_ENSG00000144320_ENST00000272748|hu_hu|FALSE|FALSE (ssRNA)
# RNA: GGGAGUUCUACAGUCCGACGAUCUUUUUGUAAUCUCUGAUUUUUUUCCCUAAAUUCUUCCAAUGCUUGAAUUUCCUUAUCUAUACUUUCUAGAACUUCUACAGUUGAAGGUUUUGUCCUCCAUCGAGAAAAUAAUCCACCCAUCAACAGAGGAUUGAGCAUCA
# B12: chr15:52350861:52350862:+_ENSG00000069956_ENST00000261845|hu_hu|FALSE|FALSE (ssRNA)
# RNA: GGGAGUUCUACAGUCCGACGAUCUGGAAUUACGCUGAGAAGCUCCUGACGAUCUUCCUCAUGUACAACAGGAAUAGAUUCUAAAAUCAGCUGCAUCUGUUCAAGUUCAUGUGCACCUGCAAAAAGGGUUUUACCAGUCAGCAUCAACAGAGGAUUGAGCAUCA
# B13: chr5:145543945:145543946:-_ENSG00000133706_ENST00000545646|hu_hu|hu_hu_hu_mus_True|58_108 (ssRNA)
# RNA: GGGAGUUCUACAGUCCGACGAUCCUGAAUAGCCAGUGGUGGGAAAUAAUCAAGCCAGUGCUCUGCUUCAGAAAACUUUACUAUCUCGUCAUCAGAGAGCCCAAGGGAUUUCAUAAUGUCCCACUGGUACUUAGAAGAUCCUGCCAACAGAGGAUUGAGCAUCA
# B14: chr1:173273950:173273951:-_ENSMUSG00000013997_ENSMUST00000111295|mus_hu|motif|central (ssRNA)
# RNA: GGGAGUUCUACAGUCCGACGAUCAGGCCCCUGCCCUGGAAUCUCUACGUCACACAGAUGUGUCUUCCUGUAAGUGGCCACGGCUGCCCCUUUGCUGUUCAGCAGCACGUGACAAUUGUAGAUUUUCUGAGUCUGCUCCCAGUCCAACAGAGGAUUGAGCAUCA
# Target: T1, UNK ZnF1-3 (human, UniProt Q9C0B0 31-174)
# T1 sequence: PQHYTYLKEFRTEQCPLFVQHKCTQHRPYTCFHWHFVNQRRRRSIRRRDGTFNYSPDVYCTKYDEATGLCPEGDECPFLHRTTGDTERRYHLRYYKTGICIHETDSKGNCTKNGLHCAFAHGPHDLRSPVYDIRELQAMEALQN
# Assay: nsRBNS (natural sequence RNA bind-n-seq); RBNS binding buffer (assumed for nsRBNS): 25 mM Tris pH 7.5, 150 mM KCl, 3 mM MgCl2, 0.01% Triton X-100, 500 ug/ml BSA, 20 U/ml SUPERase-In, 4 C; UNK is unkempt and MSI1 is Musashi-1; names of the RNAs are library labels; protein concentration not given here; high values mean tight binding
row,Binder,binding signal [enrichment R]
1,B1,0.941
2,B2,1.23
3,B3,0.714
4,B4,0.955
5,B5,1.11
6,B6,1.66
7,B7,1.38
8,B8,1.37
9,B9,1.79
10,B10,0.87
11,B11,0.72
12,B12,0.824
13,B13,1.14
14,B14,0.597
